For 4 molecules, Kd results are on record in patent publication US20250230211A1 (NANTCELL, published 2025).

What all share (assay): SPR, fusion protein captured by anti-human IgG Fc, analyte by OneStep injection at 40 nM and 20 nM
Background: SPR reads the build-up and loss of mass on a sensor chip optically.

One assay has as its target T1, IL-2Rβ (UniProt P14784 27-240, limits assumed).
T1 construct: also called IL2RB
T1 sequence (looked up): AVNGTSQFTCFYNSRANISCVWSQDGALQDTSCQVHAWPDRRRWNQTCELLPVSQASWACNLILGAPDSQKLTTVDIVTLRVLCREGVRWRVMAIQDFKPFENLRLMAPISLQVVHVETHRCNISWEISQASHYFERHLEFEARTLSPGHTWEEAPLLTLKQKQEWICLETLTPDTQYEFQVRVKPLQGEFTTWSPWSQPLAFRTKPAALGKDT
On the procedure: (§1) Surface plasmon resonance (SPR) studies were conducted with the purified fusion proteins to assess their binding affinities to relevant targets. The SPR kinetic assay was performed by immobilizing rabbit α-human IgG Fc antibodies (Thermo) on a PCH sensor (Sartorius) as the capture molecule. All molecules of interest were then captured on the sensor surface by α-IgG1-Fc and Fc domain interaction. Binding kinetics against IL-2Rβ, human CTLA4, and murine CTLA4 were determined by OneStep injection at 40 nM and 20 nM of each analyte. […] The αCTLA4-scFv has higher affinity to CTLA4 than when the binding domain is in IgG form.

Another assay has as its target T2, murine CTLA4 (murine, UniProt P09793 36-161, limits assumed).
T2 construct: also called Mouse CTLA4
The protocol: as §1

The target of a further assay is T3, human CTLA4 (human, UniProt P16410 36-161).
T3 sequence (looked up): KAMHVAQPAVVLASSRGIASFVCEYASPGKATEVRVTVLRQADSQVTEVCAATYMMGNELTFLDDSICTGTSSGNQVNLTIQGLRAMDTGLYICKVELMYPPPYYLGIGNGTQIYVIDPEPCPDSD
On the procedure: as §1

B1: nogapendekin alfa-imbakicept (N-803) (Fc fusion)
chain 1: [sequence of about 120 residues omitted]
chain 2: ITCPPPMSVEHADIWVKSYSLYSRERYICNSGFKRKAGTSSLTECVLNKATNVAHWTTPSLKCIR[sequence of human IgG1 Fc with changes omitted]
notes: also called NAI; ALT-803
As to B1, the dissociation constant Kd in the assay with IL-2Rβ lay within 1.8 to 2 nM.

B2: αCTLA4/TxM-B (N-844-2) (Fc fusion)
chain 1: DIQMTQSPSSLSASVGDRVTITCQASQDISNYLNWYQQKPGKAPKLLIYDASNLETGVPSRFSGSGSGTDFTFTISSLQPEDIATYYCQQGDAWPWTFGQGTKVEIKGGGGSGGGGSGGGGSEVQLVESGGGLVQPGGSLRLSCAASGFTFTSYSMHWVRQAPGKGLEWVSGISGSGRSTSYADSVKGRFTISRDNSKNTLYLQMNSLRAEDTAVYYCARDLMAFNLVRAGGFDVWGQGTLVTVSSGGGGSGGGGSGGGGS[sequence of about 120 residues omitted]
chain 2: ITCPPPMSVEHADIWVKSYSLYSRERYICNSGFKRKAGTSSLTECVLNKATNVAHWTTPSLKCIR[sequence of human IgG1 Fc with changes omitted]
For the molecule B2, the Kd with murine CTLA4 is 0.1 to 0.2 nM; with IL-2Rβ, 3.1 nM; with human CTLA4 it was 0.1 to 0.9 nM.

B3: αCTLA4/TxM-A (N-844-1) (Fc fusion)
chain 1: DIQMTQSPSSLSASVGDRVTITCQASQDISNYLNWYQQKPGKAPKLLIYDASNLETGVPSRFSGSGSGTDFTFTISSLQPEDIATYYCQQGDAWPWTFGQGTKVEIKGGGGSGGGGSGGGGSEVQLVESGGGLVQPGGSLRLSCAASGFTFTSYSMHWVRQAPGKGLEWVSGISGSGRSTSYADSVKGRFTISRDNSKNTLYLQMNSLRAEDTAVYYCARDLMAFNLVRAGGFDVWGQGTLVTVSSITCPPPMSVEHADIWVKSYSLYSRERYICNSGFKRKAGTSSLTECVLNKATNVAHWTTPSLKCIR[sequence of human IgG1 Fc with changes omitted]
chain 2: [sequence of about 120 residues omitted]
Take B3: the Kd was 0.1 nM with murine CTLA4, 1.5 nM with IL-2Rβ and 0.3 to 0.6 nM with human CTLA4.

B4: αCTLA4/TxM-C (N-844-3) (Fc fusion)
chain 1: ITCPPPMSVEHADIWVKSYSLYSRERYICNSGFKRKAGTSSLTECVLNKATNVAHWTTPSLKCIR[sequence of human IgG1 Fc with changes omitted]GGGGSGGGGSGGGGSDIQMTQSPSSLSASVGDRVTITCQASQDISNYLNWYQQKPGKAPKLLIYDASNLETGVPSRFSGSGSGTDFTFTISSLQPEDIATYYCQQGDAWPWTFGQGTKVEIKGGGGSGGGGSGGGGSEVQLVESGGGLVQPGGSLRLSCAASGFTFTSYSMHWVRQAPGKGLEWVSGISGSGRSTSYADSVKGRFTISRDNSKNTLYLQMNSLRAEDTAVYYCARDLMAFNLVRAGGFDVWGQGTLVTVSS
chain 2: [sequence of about 120 residues omitted]
Take B4: the figures for the Kd with murine CTLA4, with IL-2Rβ and with human CTLA4 were 0.3 to 1.1 nM, 1.3 nM and 1.7 to 3.9 nM, respectively.

As usually defined, the Kd is a measure of binding affinity in units of concentration. Lower therefore signals a tighter complex.
